# The list shows a part of the results.
# Assays:
# Experiment in all cases: glycan array binding signal (z-score within array); higher = stronger binding
# Details in all cases: glycan notation: IUPAC condensed, linker removed
# [1] = target: Fuc(a1-2)Gal
# How it was run: (§1)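 The binding signal is a Z-score computed within each array and averaged over linkers. Arrays of the same protein sequence at different concentrations or buffers were also averaged together. Data originate from 3228 arrays in the Consortium for Functional Glycomics database, kept only where the protein sequence was available.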
# [2] = target: Fuc(a1-2)Gal(b1-3)GalNAc
# How it was run: as §1
# [3] = target: Fuc(a1-2)Gal(b1-3)GalNAc(a1-3)[Fuc(a1-2)]Gal(b1-4)Glc
# How it was run: as §1
# [4] = target: Fuc(a1-2)Gal(b1-3)GalNAc(a1-3)[Fuc(a1-2)]Gal(b1-4)GlcNAc
# How it was run: as §1
# [5] = target: Fuc(a1-2)Gal(b1-3)GalNAc(b1-3)Gal
# How it was run: as §1
# [6] = target: Fuc(a1-2)Gal(b1-3)GalNAc(b1-3)Gal(a1-4)Gal(b1-4)Glc
# How it was run: as §1
# [7] = target: Fuc(a1-2)Gal(b1-3)GalNAc(b1-4)[Neu5Ac(a2-3)]Gal(b1-4)Glc
# How it was run: as §1
# [8] = target: Fuc(a1-2)Gal(b1-3)GlcNAc
# How it was run: as §1
# [9] = target: Fuc(a1-2)Gal(b1-3)GlcNAc(b1-2)Man(a1-3)[Fuc(a1-2)Gal(b1-3)GlcNAc(b1-2)Man(a1-6)]Man(b1-4)GlcNAc(b1-4)GlcNAc
# How it was run: as §1
# [10] = target: Fuc(a1-2)Gal(b1-3)GlcNAc(b1-2)Man(a1-3)[Fuc(a1-2)Gal(b1-3)GlcNAc(b1-2)Man(a1-6)]Man(b1-4)GlcNAc(b1-4)[Fuc(a1-6)]GlcNAc
# How it was run: as §1
# [11] = target: Fuc(a1-2)Gal(b1-3)GlcNAc(b1-3)Gal(b1-4)Glc
# How it was run: as §1
# [12] = target: Fuc(a1-2)Gal(b1-3)GlcNAc(b1-3)GalNAc
# How it was run: as §1
# [13] = target: Fuc(a1-2)Gal(b1-3)GlcNAc(b1-3)[Fuc(a1-2)Gal(b1-3)GlcNAc(b1-6)]GalNAc
# How it was run: as §1
# [14] = target: Fuc(a1-2)Gal(b1-3)GlcNAc(b1-3)[Gal(b1-4)GlcNAc(b1-6)]Gal(b1-4)Glc
# How it was run: as §1
# [15] = target: Fuc(a1-2)Gal(b1-3)GlcNAc(b1-3)[Neu5Ac(a2-6)Gal(b1-4)GlcNAc(b1-6)]Gal(b1-4)Glc
# How it was run: as §1
# [16] = target: Fuc(a1-2)Gal(b1-3)GlcNAc6S
# How it was run: as §1
# [17] = target: Fuc(a1-2)Gal(b1-3)[Fuc(a1-4)]GlcNAc
# How it was run: as §1
# [18] = target: Fuc(a1-2)Gal(b1-3)[Fuc(a1-4)]GlcNAc(b1-2)Man(a1-3)[Fuc(a1-2)Gal(b1-3)[Fuc(a1-4)]GlcNAc(b1-2)Man(a1-3)]Man(b1-4)GlcNAc(b1-4)GlcNAc
# How it was run: as §1
# [19] = target: Fuc(a1-2)Gal(b1-3)[Fuc(a1-4)]GlcNAc(b1-2)Man(a1-3)[Fuc(a1-2)Gal(b1-3)[Fuc(a1-4)]GlcNAc(b1-2)Man(a1-6)]Man(b1-4)GlcNAc(b1-4)[Fuc(a1-6)]GlcNAc(b1-4)[Fuc(a1-6)]GlcNAc
# How it was run: as §1
# [20] = target: Fuc(a1-2)Gal(b1-3)[Fuc(a1-4)]GlcNAc(b1-3)[Fuc(a1-3)[Gal(b1-4)]GlcNAc(b1-6)]Gal(b1-4)Glc
# How it was run: as §1
# [21] = target: Fuc(a1-2)Gal(b1-3)[Fuc(a1-4)]GlcNAc(b1-3)[Gal(b1-4)GlcNAc(b1-6)]Gal(b1-4)Glc
# How it was run: as §1
# [22] = target: Fuc(a1-2)Gal(b1-4)Fuc(a1-3)]GlcNAc(b1-2)Man(a1-3)[Fuc(a1-2)Gal(b1-4)[Fuc(a1-3)]GlcNAc(b1-2)Man(a1-6)]Man(b1-4)GlcNAc(b1-4)GlcNAc
# How it was run: as §1
# [23] = target: Fuc(a1-2)Gal(b1-4)Glc
# How it was run: as §1
# [24] = target: Fuc(a1-2)Gal(b1-4)Glc6S
# How it was run: as §1
# [25] = target: Fuc(a1-2)Gal(b1-4)GlcNAc
# How it was run: as §1
# [26] = target: Fuc(a1-2)Gal(b1-4)GlcNAc(b1-2)Man
# How it was run: as §1
# [27] = target: Fuc(a1-2)Gal(b1-4)GlcNAc(b1-2)Man(a1-3)[Fuc(a1-2)Gal(b1-4)GlcNAc(b1-2)Man(a1-6)]Man(b1-4)GlcNAc(b1-4)GlcNAc
# How it was run: as §1
# [28] = target: Fuc(a1-2)Gal(b1-4)GlcNAc(b1-2)Man(a1-3)[Fuc(a1-2)Gal(b1-4)GlcNAc(b1-2)Man(a1-6)]Man(b1-4)GlcNAc(b1-4)[Fuc(a1-6)]GlcNAc
# How it was run: as §1
# [29] = target: Fuc(a1-2)Gal(b1-4)GlcNAc(b1-2)[Fuc(a1-2)Gal(b1-4)GlcNAc(b1-4)]Man(a1-3)[Fuc(a1-2)Gal(b1-4)GlcNAc(b1-2)Man(a1-6)]Man(b1-4)GlcNAc(b1-4)GlcNAc
# How it was run: as §1
# [30] = target: Fuc(a1-2)Gal(b1-4)GlcNAc(b1-3)Gal(b1-4)GlcNAc
# How it was run: as §1
binder,measurement,setting,value
"CFEM-PPm (Pichia pastoris), F2QPV1 (protein) AVATPPACLLACAAEVVKESSDCDALNNIQCICENEGSAIHACLESTCPDGLSSTALQSFEDVCE",glycan array binding signal (z-score),[1],-0.282
same,glycan array binding signal (z-score),[2],-0.128
same,glycan array binding signal (z-score),[3],-0.33
same,glycan array binding signal (z-score),[4],-0.477
same,glycan array binding signal (z-score),[5],0.693
same,glycan array binding signal (z-score),[6],-0.397
same,glycan array binding signal (z-score),[7],0.176
same,glycan array binding signal (z-score),[8],-0.176
same,glycan array binding signal (z-score),[9],-0.289
same,glycan array binding signal (z-score),[10],-0.221
same,glycan array binding signal (z-score),[11],-0.269
same,glycan array binding signal (z-score),[12],0.84
same,glycan array binding signal (z-score),[13],-0.111
same,glycan array binding signal (z-score),[14],-0.32
same,glycan array binding signal (z-score),[15],-0.215
same,glycan array binding signal (z-score),[16],-0.038
same,glycan array binding signal (z-score),[17],0.026
same,glycan array binding signal (z-score),[18],0.346
same,glycan array binding signal (z-score),[19],0.007
same,glycan array binding signal (z-score),[20],-0.342
same,glycan array binding signal (z-score),[21],-0.1
same,glycan array binding signal (z-score),[22],0.209
same,glycan array binding signal (z-score),[23],-0.194
same,glycan array binding signal (z-score),[24],-0.286
same,glycan array binding signal (z-score),[25],-0.341
same,glycan array binding signal (z-score),[26],-0.119
same,glycan array binding signal (z-score),[27],-0.405
same,glycan array binding signal (z-score),[28],-0.412
same,glycan array binding signal (z-score),[29],-0.188
same,glycan array binding signal (z-score),[30],-0.192
